Reference: paper PMC2223503
Ends that are not written are not given here.

Legend:
CCK-B receptors = assay: competitive inhibition of [125I]BH-CCK-8 binding in tumour-free human pancreas (CCK receptor subtype); conditions: for potency in competitive inhibition of [125I]BH-CCK-8 binding: CCK-8, gastrin, L365,260 and CR 2093 compared, three experiments in duplicate (Figure 2)
[1] = tested on: patients with advanced pancreatic cancer; conditions: ref Abbruzzese et al, 1992; cited from earlier work
[2] = tested on: CCK-A and CCK-B receptors; conditions: ref Wank et al, 1994 (preceding sentence); cited from earlier work
BBS receptors = assay: storage phosphor autoradiography, binding of [125I]Tyr4-BBS to human pancreatic tissue sections; conditions: pancreatic cancer, receptor-negative cases, 10 of 12
[3] = tested on: pancreatic cancer in animal models; conditions: ref Townsend et al, 1981, Poston et al, 1988, Edwards et al, 1989, Meijers et al, 1991, 1992; cited from earlier work
[4] = tested on: patients with pancreatic cancer; conditions: radioiodinated VIP, ref Virgolini et al, 1994; cited from earlier work
[5] = tested on: pancreatic cancer cell proliferation; conditions: ref Liehr et al, 1990; cited from earlier work
Secretin receptors = conditions: ref Laburthe et al, 1994; cited from earlier work
healthy human subjects = conditions: ref Domschke et al, 1977, Fahrenkrug et al, 1987; cited from earlier work
MIA PaCa-2 = conditions: ref Poston et al, 1988, Liehr et al, 1990; cited from earlier work
PANC- 1 = conditions: ref Poston et al, 1988, Liehr et al, 1990; cited from earlier work
VIP receptors [6] = tested on: VIP receptors; set-up: method as in Laburthe et al, 1994; conditions: ref Laburthe et al, 1994; cited from earlier work
VIP receptors [7] = assay: storage phosphor autoradiography, binding of [125I]VIP-28 to human pancreatic tissue sections
Source text: Abscissa, concentrations of various agents indicated above.

intact cells = conditions: ref Herrington and Adrian, 1995; cited from earlier work
[8] = tested on: receptors for cholecystokinin (CCK); assay: storage phosphor autoradiography, binding of [125I]BH-CCK-8 to human pancreatic tissue sections; conditions: pancreatic cancer, n = 12
rat acinar cell tumours = conditions: no reference given; cited from earlier work
[9] = tested on: membranes of other pancreatic cancer cell lines; conditions: ref Singh et al, 1991; cited from earlier work
[10] = tested on: human pancreatic cancer cell lines or human pancreatic cancer xenografts in nude mice; conditions: ref Upp et al, 1987, Smith et al, 1990, Nio et al, 1993; cited from earlier work
[11] = tested on: pancreatic neoplasms of azaserine-treated rats; conditions: ref Douglas et al, 1989, Bell et al, 1992, Tang et al, 1995a; cited from earlier work
BOP-hamster model = conditions: ref Johnson et al, 1983, Howatson et al, 1985, Meijers et al, 1990; cited from earlier work

Molecule: CC(C)(C)CCNC(=O)[C@@H](CCC(=O)O)NC(=O)c1cccc(Cl)c1 [CR 2093]
- potency in competitive inhibition of [125I]BH-CCK-8 binding (CCK-B receptors): similarly potent

Molecule: Cc1cccc(NC(=O)N[C@@H]2N=C(c3ccccc3)c3ccccc3N(C)C2=O)c1 [L365,260]
- potency in competitive inhibition of [125I]BH-CCK-8 binding (CCK-B receptors): similarly potent

Molecule: CN1C(=O)[C@@H](NC(=O)c2cc3ccccc3[nH]2)N=C(c2ccccc2)c2ccccc21 [MK-329]
- impact on tumour progression, pain or nutrition [1]: failed to demonstrate any impact

Molecule: CN1C(=O)[C@@H](NC(=O)c2cc3ccccc3[nH]2)N=C(c2ccccc2)c2ccccc21 [devazepide]
- affinity relative to the CCK-B antagonists L365,260 and CR 2093 (CCK-B receptors; Figure 2B): about 45 -fold lower
- replacement of [125I]BH-CCK-8 binding (CCK-B receptors; at a concentration of 1 µM): able to replace the binding

Molecule: CCK-8: CCK receptor agonist; non-selective ligand for both CCK-A and CCK-B receptors
- potency in competitive inhibition of [125I]BH-CCK-8 binding (CCK-B receptors): similarly potent
- receptor subtype selectivity [2]: non- selective ligand for both CCK-A and CCK-B receptors

Molecule: bombesin [BBS]
- Peptide bound (BBS receptors): 0 fmol mg-1 protein
- effect on growth of pancreatic cancer [3]: inconsistent and unclear

Molecule: gastrin
- potency in competitive inhibition of [125I]BH-CCK-8 binding (CCK-B receptors): similarly potent

Molecule: radioiodinated VIP: radioiodinated VIP for in vivo scanning (Virgolini et al, 1994) (HSDAVFTDNYTRLRKQMAVKKYLNSILN; ends and bridges not checked; also: 125I-labelled, position not given here; UniProt P01282 125-152, looked up)
- tumour visualization [4]: visualized tumour masses

Molecule: secretin
- effect on cell proliferation [5]: no effect
- effect on growth of pancreatic cancer [3]: inconsistent and unclear
- affinity in words (Secretin receptors): high affinity

Molecule: vasoactive intestinal peptide [VIP]
- effect on pancreatic secretion (healthy human subjects): stimulates secretion of insulin, glucagon and bicarbonate output
- specific binding and effect (MIA PaCa-2): neither specific binding nor effect of VIP were detected
- specific binding and effect (PANC- 1): neither specific binding nor effect of VIP were detected
- effect on growth of pancreatic cancer [3]: inconsistent and unclear
- affinity in words (Secretin receptors): relatively low affinity
- affinity relative to secretin (VIP receptors [6]): much higher than that of secretin
- Peptide bound (VIP receptors [7]; normal pancreas, n = 10, [125I]VIP-28 100 pM, 22 °C, 180 min): 0 fmol mg-1 protein
- Peptide bound (VIP receptors [7]; pancreatic cancer, receptor-negative cases, 9 of 12): 0 fmol mg-1 protein

B1: cholecystokinin (peptide, UniProt P06307 21-115, looked up)
Cholecystokinin: QPVPPADPAGSGLQRAEEAPRRQLRVSQRTDGESRAHLGALLARYIQQARKAPSGRMSIVKNLQNLDPSHRISDRDYMGWMDFGRRSAEEYEYPS
modifications: Cholecystokinin
notes: gut hormone
- specific binding (intact cells): could not be demonstrated
- Peptide bound [8]: 0 fmol mg-1 protein
- effect on proliferation of rat acinar cell tumours (rat acinar cell tumours): stimulates proliferation of rat acinar cell tumours
- specific binding [9]: no specific CCK binding was detected
- effect on growth of human pancreatic cancer [10]: stimulative, inhibitory or no effect
- effect on growth of pancreatic neoplasms [11]: Promotive effects
- effect on pancreatic carcinogenesis (BOP-hamster model): rather inconsistent
